Earlier results in US20260248747A1, “PHYSICAL PERFORMANCE AID” (aXichem AB, priority 2023, published 2026).

Conditions: both doses: 0.625 mg and 2.5 mg; cited from earlier work

Substance: phenylcapsaicyn
- safety range according to EFSA expert panel: considered in the safety range
